# Reference: PubChem BioAssay AID624296 (National Center for Advancing Translational Sciences (NCATS), 2012)
# Out of some 350,000 compounds screened, about 9,900 (2.8%) were called active. Inconclusive means that the source gave no clear call. Such entries were picked first, then a sample of the others. Calls follow the shape of the dose curve; as a rule, active = well fitted activation curve with a large enough effect; inconclusive = small, poorly fitted or top-dose-only effect; inactive = no such curve, though single readings can be large or run the other way. Potencies of inconclusive entries are left out as doubtful fits.
# Experiment: A quantitative high throughput screen for small molecules that induce DNA re-replication in MCF 10a normal breast cells. Also: nearly all actives have a fitted effect of over 50% in size. As to activity, positive = re-replication: % of control where 0% means no effect.
# Details: MCF 10A DNA re-replication, Hoechst nuclear intensity, 48 h; activity, positive = re-replication: at 46.1 µM (top of the series)
# Potency is read from the fitted curve at half-maximal effect; tags tell the direction and shape of the fitted curve.
Structure (SMILES),Potency,"activity, positive = re-replication"
CCCc1nc(SCC(=O)Nc2nc3c(s2)CCCC3)c2ccccc2n1,active: 16.4 µM,
O=C(NCc1cc(C(F)(F)F)cc(C(F)(F)F)c1)C12CN(Cc3ccccc3)CC1C(c1cccc([N+](=O)[O-])c1)=NO2 (centres undefined),"inconclusive [activator, single point]",
COCCN(C(=O)CCc1nnc(Cc2c[nH]c3ccccc23)o1)C(C)C,,inactive: 8.83%
O=C(Nc1nc2ccccc2s1)c1ccc([N+](=O)[O-])o1,active: 20.6 µM,
CCC1CN(C(=O)N2CCC(C(=O)NCCc3ccccc3)CC2)c2ccccc2O1 (centres undefined),,inactive: 1.53%
COc1ccc(-c2oc3cccnc3c2C#CCO)cc1,,inactive: -46.8%
COCCn1c(=O)[nH]c2cc(C(=O)Nc3cccc(C(C)=O)c3)ccc2c1=O,,inactive: -1.27%
CC(=O)N/C(=C\c1ccccc1)C(=O)OCc1cc(C)ccc1C,,inactive: 2.47%
COc1ccc(CN(C)S(=O)(=O)c2nnc(NC(=O)c3cccc(F)c3)s2)cc1,"inconclusive [activator, partial curve, poor fit]",
N#Cc1ccc(OCC(O)CN2CCN(c3ncc(C(F)(F)F)cc3Cl)CC2)cc1 (centres undefined),"inconclusive [activator, single point]",
CC(C)CNC(=O)CSc1ccc(S(=O)(=O)N2CCN(C)CC2)cn1,,inactive: 3.24%
COc1cccc(-n2c(CCn3nc(C)c([N+](=O)[O-])c3C)n[nH]c2=S)c1,,inactive: 9.89%
CCOC(=O)CC1CCCCN1C(=O)CCCn1nnnc1CN1CCC(C)CC1 (centres undefined),"inconclusive [activator, partial curve, poor fit]",
CC1CCN(CCCNC(=O)CCc2nnc3n(CCc4ccccc4)c(=O)c4ccccc4n23)CC1,"inconclusive [activator, single point]",
Cc1nc(-c2ccc(S(=O)(=O)Nc3ccc(Br)cc3Cl)s2)cs1,"inconclusive [activator, full curve, poor fit]",
COc1ccc(CCNC(=O)CN(C)S(=O)(=O)c2ccc(Br)s2)cc1OC,,inconclusive: 104% [activator]
CCc1ccc(/C=C2/SC(=S)N(CCCC(=O)Nc3ccccc3C(=O)O)C2=O)cc1,"inconclusive [activator, partial curve]",
COc1ccc(S(=O)(=O)NNC(=O)Nc2ccccc2OC)c(OC)c1,,inactive: 0.234%
CCN(CC)CCN(C)C1CCC(c2ccccc2)CC1 (centres undefined),"inconclusive [activator, partial curve]",
COc1ccc(/C=N/Nc2nc(N3CCCCC3)nc(N3CCCCC3)n2)cc1[N+](=O)[O-],"inconclusive [activator, partial curve, poor fit]",
CN1c2ccccc2C(C)(C)C12CC(c1cccc(S(=O)(=O)N3CCCC3)c1)=NO2 (centres undefined),,inactive: -55.1%
CCn1c(SCC(=O)Nc2cccc(OC)c2)nnc1-c1ccc(Cl)cc1,,inactive: 8.65%
CC(/C=N/Nc1nc(C)cc(=O)[nH]1)=C\c1ccccc1,,inactive: 19.1%
Cc1ccc(N2C(=O)c3ccc(C(=O)N4CCN(c5cccc(C)c5C)CC4)cc3C2=O)cc1,,inactive: -181% [at 0.0737 µM]
COCCN(C(=O)Cn1nnc2ccccc21)C(C(=O)NC1CCCC1)c1cc(OC)ccc1OC (centres undefined),"inconclusive [activator, single point]",

Structure (SMILES),Potency,"activity, positive = re-replication"
N=c1c2c3c(sc2ncn1Cc1ccccc1)CCCC3,"inconclusive [activator, full curve, poor fit]",
O=C(Nc1ccc(Cl)cc1)N1CCCC(Cn2cccc2)C1 (centres undefined),,inactive: 0%
Cc1ccc2nc(NCCc3ccccc3)c3nncn3c2c1,"inconclusive [activator, full curve, poor fit]",
Cc1ccc2nc(N(CCCN(C)C)C(=O)c3cc(-c4cccs4)nc4ccccc34)sc2c1,"inconclusive [activator, single point]",
Cn1c2ccccc2c(=O)c2c(=O)n(C3CCCCC3)c(-c3cccs3)nc21,"inconclusive [activator, single point]",
Cc1ccc2nc(NCCO)nc(-c3ccccc3)c2c1,"inconclusive [activator, single point]",
CC(C)(C)C(=O)N(Cc1nc2ccccc2c(=O)[nH]1)Cc1cccs1,,inactive: -6.13%
COC(=O)c1ccc(-n2c(C)cc(C(=O)CCl)c2C)cc1,active: 11.6 µM,
CCN(CC)C(=O)c1cccc(NC(=O)c2cc(-c3ccccn3)nc3ccccc23)c1,"inconclusive [activator, single point]",
Cc1cc(C(=O)CSc2nnc(-c3ccccc3F)o2)c(C)n1Cc1cccs1,"inconclusive [activator, partial curve, poor fit]",
CCN1CSC(=S)N(Cc2ccccc2)C1,"inconclusive [activator, single point]",
O=S(=O)(NC1CCCCCC1)c1ccc(Br)s1,"inconclusive [activator, single point]",
COCCN(C(=O)Cc1csc(-c2cccc(Cl)c2)n1)c1c(N)n(Cc2ccccc2)c(=O)[nH]c1=O,,inactive: 13.9%
Cc1ccccc1SCC(=O)OCC(=O)NCc1ccccc1,,inactive: -1.67%
COc1ccc(C(=O)NCCCN=C2NS(=O)(=O)c3ccccc32)cc1,,inactive: -5.29%
CN1C(=O)C2(NC(=O)c3ccccc3N2C)c2ccccc21 (centres undefined),,inactive: -4.98%
CN(C)C(=O)CN(C)S(=O)(=O)c1ccc(Cl)cc1,"inconclusive [activator, partial curve, poor fit]",
Cc1cc(=O)oc2cc(OCC3CC(c4ccc(Br)cc4)=NO3)ccc12 (centres undefined),active: 9.2 µM,
CCOC(=O)c1c(CN2CCOCC2)n(-c2ccccc2)c2cc(Br)c(O)cc12,,inactive: -1.06%
COc1ccc(S(=O)(=O)N2CCCC2C(=O)Nc2nnc(-c3cccnc3)s2)cc1 (centres undefined),,inactive: 21.2%
CC1(C)NC(=O)N(CC(O)COc2ccc(-c3ccccc3)cc2)C1=O (centres undefined),"inconclusive [activator, partial curve, poor fit]",
Cc1cnc(NC(=O)c2ccco2)s1,"inconclusive [activator, partial curve, poor fit]",
CCCN(CCC)c1nc2ccccc2nc1C(C#N)C(=O)OCCOC (centres undefined),"inconclusive [activator, single point]",
O=C(COC(=O)[C@@H]1CCCN1S(=O)(=O)c1ccccc1F)c1ccccc1,"inconclusive [activator, single point]",
Cc1cccc(OCCN2C(=O)C(=O)c3cc(C)ccc32)c1,active: 18.4 µM,

Structure (SMILES),Potency,"activity, positive = re-replication"
COc1ccc(-c2cc(-c3ccc(Cl)cc3)c(C#N)c(SCC(=O)O)n2)cc1,active: 16.4 µM,
COc1ccc(N2CCN(C(=O)c3ccc4c(Cl)c5c(nc4c3)CCCC5)CC2)cc1,"inconclusive [activator, single point]",
C/C(CC(=O)Nc1cccc(Cl)c1)=N\NC(=O)Cc1ccc(Cl)cc1,,inactive: 4.37%
N#Cc1ccc(C23CC4(C2)[C@H](CN(CC2CCCCC2)[C@@H]4c2ccccc2)C3c2ccccc2)cc1 (some centres undefined),"inconclusive [activator, single point]",
CCc1cc2c(SCC(=O)Nc3ncc(Cl)c(C)c3Cl)ncnc2s1,"inconclusive [activator, single point]",
CCOC(=O)C1(CCCc2ccccc2)CCN(CCCn2cccn2)CC1,,inactive: 4.54%
O=C(Nc1ccccc1C(=O)NCCc1ccccc1)c1cnccn1,,inactive: 3.58%
CN(CC1COc2ccccc2O1)C(=S)Nc1ccccc1F (centres undefined),,inactive: 18.4%
CC(C)C[C@H](N)c1nnc(SCc2ccc(Cl)cc2)o1,,inactive: -13.3%
Cc1ccc(NC(=S)N/N=C2\CCCCC2C)cc1 (centres undefined),"inconclusive [activator, single point]",
CCN(CC)C(=O)COc1c(-c2ccco2)oc2ccccc2c1=O,"inconclusive [activator, partial curve, poor fit]",
COc1ccc(/C=C/C2=CC(C)(C)NC(=S)N2)cc1,,inactive: 3.07%
CC(C)c1ccc(OCc2cccc(C(=O)N/N=C/c3cccnc3)c2)cc1,"inconclusive [activator, partial curve, poor fit]",
Cc1cc(=O)oc(C)c1C(=O)NCc1ccc(F)cc1,"inconclusive [activator, partial curve, poor fit]",
O=C(NCCc1ccncc1)Nc1ccc(Cl)c(Cl)c1,"inconclusive [activator, partial curve, poor fit]",
Clc1ccc(Br)cc1-c1nc(-c2ccncc2)no1,,inactive: 6.31%
CCCCCCNC(=O)n1cc(F)c(=O)[nH]c1=O,,inactive: 21.2%
O=C(NC12CC3CC(CC(C3)C1)C2)N1CCN(c2nc(-c3ccccc3)cs2)CC1,"inconclusive [activator, full curve]",
COC(CN(C(=O)CCl)C(C(=O)NC1CCCC(C)C1C)c1ccc(C)cc1)OC (centres undefined),"inconclusive [activator, partial curve, poor fit]",
COc1ccccc1/C=C\C(=O)NCC(=O)N/N=C/c1ccc(O)cc1O,"inconclusive [activator, single point]",
Cc1ccc2c(c1)C(=O)C(=O)N2Cc1ccc(C(F)(F)F)cc1,"inconclusive [activator, single point]",
Cc1ccc(S(=O)(=O)Nc2ccc(N(C)C)cc2)cc1,,inactive: -0.952%
CCN(CC)CCCn1c(=S)[nH]c2cc(C(=O)OC)ccc2c1=O,,inactive: -0.373%
O=C(CN(c1ccc(Cl)c(Cl)c1)S(=O)(=O)c1ccccc1)N1CCc2ccccc2C1,,inactive: 14.8%
